Test results: the RNAGym collection of RNA variant scans (doi:10.1073/pnas.2313332121)
Variants at the background level are over-represented here.

B1: TPR 5TU (parent)
chain: GGAUCUUCUCGAUCUAACAAAAAAGACAAAUCUGCCACAAAGCUUGAGAGCAUCUUCGGAUGCAGAGGCGGCAGCCUUCGGUGGCGCGAUAGCGCCAACGUUCUCAACUAUGACACGCAAAACGCGUGCUCCGUUGAAUGGAGUUUAUCAUG

Variants of: B1
Assay: polymerase ribozyme fitness, log enrichment relative to wild type (log ratio); higher = more active; in vitro selection for triplet polymerase activity
Method in brief: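 Fitness is a logarithmic measure of how a genotype enriched relative to the wild type, with replicate averages weighted by inverse variance. The logarithm uses base 2, and enrichment came from Illumina sequencing of input and output libraries. Those libraries were PCR-built, transcribed mutants of each subunit of a heterodimeric triplet polymerase ribozyme, passed through one triplicate in vitro selection round that included frozen incubation at −7 °C, gel excision of extended constructs and streptavidin-bead capture. Genotypes were kept only if they had ≥10 input reads and ≥1 read per output.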

Row | Variant | polymerase ribozyme fitness (log ratio)
1 | A52C C57G | -1.79
2 | A52C C57G G94A G100U U148A | ≤ -4.2
3 | A52C C57U | -1.24
4 | A52C C57U C63A C72G U77A C85A A107U A122U G136C U148A | ≤ -4.2
5 | A52C C57U C75U G86A A107G G126U | ≤ -4.2
6 | A52C C57U C85U C93G U102G | ≤ -4.2
7 | A52C C57U G133U | ≤ -4.2
8 | A52C C57U U102G U146G | ≤ -4.2
9 | A52C C63U A64U A107U | ≤ -4.2
10 | A52C C69A C96A | -3.18
11 | A52C C69G G84U A115C | ≤ -4.2
12 | A52C C72A C85U A107G | ≤ -4.2
13 | A52C C75G C85U C95U A121G A122U U151G | ≤ -4.2
14 | A52C C75G G88C | ≤ -4.2
15 | A52C C79G G84C G94U G100U | ≤ -4.2
16 | A52C C85G G92U | ≤ -4.2
17 | A52C C85U | -1.81
18 | A52C C85U G136A A142G G143C | ≤ -4.2
19 | A52C C87U | -0.789
20 | A52C C93U C103G | ≤ -4.2
21 | A52C C95U C96U C114U G133U | ≤ -4.2

Row | Variant | polymerase ribozyme fitness (log ratio)
22 | A52C C95U C99U | -3.18
23 | A52C C96A C118G C125A | -2.23
24 | A52C C96G | -1.36
25 | A52C C96G C99A U111A | ≤ -4.2
26 | A52C G58A C93U A115C U139G G141U G143U U148G | ≤ -4.2
27 | A52C G58A G68A | ≤ -4.2
28 | A52C G58C C85A | -3.96
29 | A52C G58C C116A C123G C125U | ≤ -4.2
30 | A52C G58C G88U | ≤ -4.2
31 | A52C G58C U82G C93A C95G A107U U130G U139G | ≤ -4.2
32 | A52C G58U G59A C85A | -2.15
33 | A52C G58U G92A C93A A150G | ≤ -4.2
34 | A52C G67A G74U G86U C93U A115G | ≤ -4.2
35 | A52C G68A A97C C99U | ≤ -4.2
36 | A52C G68C | ≤ -4.2
37 | A52C G68C C99U A115G | ≤ -4.2
38 | A52C G74C C108U A113G U145G | ≤ -4.2
39 | A52C G80C C93G | ≤ -4.2
40 | A52C G80C G83U | ≤ -4.2
41 | A52C G81A C85U C99G | ≤ -4.2
42 | A52C G81A G83C C96U U102A C125G | ≤ -4.2

Row | Variant | polymerase ribozyme fitness (log ratio)
43 | A52C G83C C85U A121G A138C | ≤ -4.2
44 | A52C G83U C85A C95U C105A | ≤ -4.2
45 | A52C G84A G86U C95U C114G | ≤ -4.2
46 | A52C G84C C85G G88A | ≤ -4.2
47 | A52C G84C C87U C96A G100A U101G | ≤ -4.2
48 | A52C G88A | -3.57
49 | A52C G88A C95U C99U A110U | -4.07
50 | A52C G88U U101G C105U A107U C118A G143U | ≤ -4.2
51 | A52C G94C U139C G140A U148A A150U | ≤ -4.2
52 | A52C G152U | -3.45
53 | A52C U53A C57A G58U G83U C118U U151G | ≤ -4.2
54 | A52C U53A C63G G65A C85U C95G U102C G117U | ≤ -4.2
55 | A52C U53A G88C C95U U145C | ≤ -4.2
56 | A52C U53A U55G U90A C99U | ≤ -4.2
57 | A52C U53A U148G | ≤ -4.2
58 | A52C U53G C72U G83A G124A | ≤ -4.2
59 | A52C U55A A66C C79G G133U A137G | ≤ -4.2
60 | A52C U55A G74U G88U G92U C105G A107G | ≤ -4.2
61 | A52C U55A U56A C63U A64C C85U A98G | ≤ -4.2
62 | A52C U55A U90C U102G A110G A142U | ≤ -4.2
63 | A52C U55C G83A U151A G152A | ≤ -4.2

Row | Variant | polymerase ribozyme fitness (log ratio)
64 | A52C U55G | -3.84
65 | A52C U56A C76U U82C A107G A121U | ≤ -4.2
66 | A52C U56C C57A G67A C85U A97U U146G U151G | ≤ -4.2
67 | A52C U56C C103G G143C | -4.12
68 | A52C U56G C63U G68A C93U C103G A150C | ≤ -4.2
69 | A52C U61A G65A C95A G141U | -2.36
70 | A52C U61A G68A C85U | ≤ -4.2
71 | A52C U77C G81A G88C C93U C131U | ≤ -4.2
72 | A52C U78A A91C C108U G143A | ≤ -4.2
73 | A52C U78A G84U G141C | ≤ -4.2
74 | A52C U90G G94A C95A C105U U130G | ≤ -4.2
75 | A52G A60C | -1.96
76 | A52G A60C C69U C85G C96A U130G | ≤ -4.2
77 | A52G A64U U101G A107C C125G | ≤ -4.2
78 | A52G A66C C85A A110C | ≤ -4.2
79 | A52G A66U A91U | ≤ -4.2
80 | A52G A73C G86U C95U G124A | ≤ -4.2
81 | A52G A73G C99U G117A | -1.7
82 | A52G A73U C96U U135A | ≤ -4.2
83 | A52G A73U G94A U102G C103G A107U | ≤ -4.2
84 | A52G A89U G92A A115U A147C | ≤ -4.2
